Reference: PubChem BioAssay AID1346428 (National Center for Advancing Translational Sciences (NCATS), 2018)
Screen size: about 48,000 compounds; about 1,200 (2.5%) were called active. Not shown: some 2% with an inconclusive outcome.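 Rule for the calls: active = activation of at least 60% and not above a set upper limit (about 1 call in 100 departs from these limits); inconclusive = activation of 40% to 60%, or above that upper limit; inactive = activation under 40%.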 The list shows a part of the results.

target: Probable G-protein coupled receptor 32 (Homo sapiens) (UniProt O75388); test: qHTS for Agonists of Human Resolvin D1 Receptor DRV1; conditions: CHO-K1 GPR32 beta-arrestin PathHunter luminescence, 90 min; at 76.9 µM; active compounds read high; zero percent set by DMSO-only wells; note: 0% is about no effect
Sequence of UniProt O75388 (O75388 whole entry, looked up): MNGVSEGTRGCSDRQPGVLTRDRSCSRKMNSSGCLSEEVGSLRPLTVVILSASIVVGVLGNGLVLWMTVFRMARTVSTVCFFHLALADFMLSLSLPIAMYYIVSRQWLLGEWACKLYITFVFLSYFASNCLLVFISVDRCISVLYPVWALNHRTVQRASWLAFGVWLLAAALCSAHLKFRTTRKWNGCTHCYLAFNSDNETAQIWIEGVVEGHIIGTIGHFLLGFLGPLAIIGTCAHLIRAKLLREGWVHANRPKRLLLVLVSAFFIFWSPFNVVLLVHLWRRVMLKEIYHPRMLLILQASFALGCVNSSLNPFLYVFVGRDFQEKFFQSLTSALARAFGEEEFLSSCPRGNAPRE
Outline: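 Using DMSO wells as EC0, agonist-induced signal was taken as chemiluminescence from beta-Gal reconstituted upon beta-arrestin recruitment to GPR32 in CHO-K1 cells after 90 min compound treatment.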

activation, inactive:
C=CCc1ccccc1OCC(O)CN1CCN(c2ccccc2)CC1 (configuration not stated) -25.1%
CCOC(=O)c1ccc(NC(=O)CC2C(=O)N(c3cccc(OC)c3)C(=O)N2Cc2ccc(OC)cc2)cc1 (configuration not stated) 1.01%
CCc1ccccc1NC(=O)c1cnc2sc(N3CCOCC3)nn2c1=O -0.755%
CCC(Oc1ccc(F)cc1)C(=O)Nc1nc(-c2ccc(F)cc2)ns1 (configuration not stated) 22.6%
COc1ccc(C(CC(=O)NCc2ccccc2)N2Cc3ccccc3C2=O)cc1 (configuration not stated) -16.3%
Cc1ccccc1NC(=O)CSc1nc(=O)n(CCN2CCOCC2)c2c1CCC2 -2.26%
CN(Cc1ccccc1)C(=O)CSc1nc2ccccc2n1Cc1ccccc1F -34.4%
CC(C)c1cnc2c(c1SCC(=O)NCc1ccccc1)c(=O)n(C)c(=O)n2C -25.6%
Cc1ccc(-c2nc3ccc(Cl)cn3c2Nc2ccccc2C)s1 -30.2%
COc1ccccc1Cc1nc2ccccc2nc1SCC(=O)Nc1cccc(Cl)c1C -8.37%
COC(=O)c1ccc(NC(=O)CCc2c(C)nc3c(c2C)c(=O)n(C)c(=O)n3C)cc1 -7.86%
Cc1sc2c(c1C)c(=O)n(-c1cccc(C(F)(F)F)c1)c(=O)n2Cc1ccc(F)cc1 -1.01%
COc1cc(NC(=O)CSC2=Nc3ccccc3N=C(c3ccc(F)cc3)C2)cc(OC)c1 -3.38%
COc1ccc(CNC(=O)c2cnc3cc(C)ccn3c2=O)cc1 17.2%
NC(=O)c1ccccc1 -8.5%
CCc1ccc(N(CC)C(=O)Cn2c(=O)oc3ccccc32)cc1 -10.6%
Cc1ccnc(NS(=O)(=O)c2cc(-c3cc(C)no3)ccc2C)c1 -2.34%
Cc1ccc(-n2ncc(C(=O)Nc3ccc4c(c3)OCO4)c2C2CCN(C(=O)OC(C)(C)C)CC2)cc1 -26.6%
Cc1nc2scc(C)n2c(=O)c1S(=O)(=O)Nc1ccc(N2CCOCC2)cc1 4.86%
COc1cccc2cc(C(=O)NCCc3c(C)[nH]c4ccc(Br)cc34)c(=O)oc12 6.09%
Cc1nn(S(=O)(=O)c2ccc(F)cc2)c(C)c1S(=O)(=O)N1CCC(C)CC1 39.2%
COc1ccc(NC(=O)C2CCCN(S(=O)(=O)c3ccc4c(c3)CCCC(=O)N4)C2)c(OC)c1 (configuration not stated) 24.2%
CC(=O)c1cccc(NC(=O)CCS(=O)(=O)c2ccc(Br)s2)c1 12.6%
O=C(CN1C(=O)CC(c2ccccc2)Sc2ccccc21)Nc1cccc(Cl)c1 (configuration not stated) -0.62%
Cc1ccc(S(=O)(=O)c2cn(Cc3ccc(F)cc3)c3cc(F)c(F)cc3c2=O)cc1 -22%
CCOC(=O)c1cc2c(=O)n3ccccc3nc2n(CC(C)C)c1=NC(=O)c1cc2ccccc2o1 -18.2%
COc1ccc(/C=C/C(=O)Nc2nc3n(n2)C(c2ccccc2)C=C(c2ccccc2)N3)cc1 (configuration not stated) -11.2%
Cc1ccc(-c2cnc(NCc3ccc(C(F)(F)F)cc3)n2C)cc1 -35.7%
CCN(C(=O)Cn1c(=O)oc2cc(Cl)ccc21)c1cccc(C(F)(F)F)c1 -17%
Cc1ccc(CCNC(=O)C2CCN(c3nnc(-n4cccc4CNc4ccc(C)cc4)s3)CC2)cc1 -36.9%
CC(C)(C)NC(=O)c1cnn2c(C(F)F)cc(-c3ccccc3)nc12 -16%
CN1C(=O)C2(c3ccccc31)N(c1cccc(F)c1)C(=O)CS2(=O)=O (configuration not stated) -10.4%
COCCCNC(=O)c1cc(-c2cccnc2)nc2ccc(S(=O)(=O)N3CCC(C)CC3)cc12 -5.94%
O=C(NCc1ccccc1Cl)c1cnc2sc(N3CCCCC3)nn2c1=O 10.9%
COc1ccc(Cl)cc1NC(=O)c1c(NCc2sccc2C)sc2c1CCCC2 -1.68%
Clc1ccccc1CNc1nc2ccccc2c2nc(-c3cccnc3)nn12 -8.01%
O=S(=O)(c1ccc(Br)cc1)c1nc(-c2cccs2)oc1SCc1ccccc1F -11.7%
COc1ccc(OC)c(CNS(=O)(=O)c2c(C(=O)N3CCCCCC3)c(C)n(C)c2C)c1 -9.07%
O=C(Cn1nnc(-c2ccc(Cl)cc2)n1)NCc1ccc(F)cc1 1.48%
Cc1cccc(CNC(=O)C2CCN(c3nc4ccc(Cl)cc4[nH]3)CC2)c1 -8.21%
CCn1c2ccc(F)cc2c2nnc(SCCN3CCCCC3)nc21 -21.8%
Cn1cnc2c(F)c(Nc3ccc(Br)cc3Cl)c(C(=O)NOCCO)cc21 6.11%
